Laboratory results: PubChem BioAssay AID1347073 (National Center for Advancing Translational Sciences (NCATS), 2019)
In all, about 45,000 compounds went through this assay and about 200 (0.44%) were called active. Inconclusive results (about 7%) are left out. Calls come from the whole dose curve; as a rule, active = well fitted activation curve with a large enough effect; inconclusive = small, poorly fitted or top-dose-only effect; inactive = no such curve, though single readings can be large or run the other way. The list shows a part of the results.

Test: qHTS of TDP-43 Inhibitors: NCGC Sytravon Library Screen; note: 0% is about no effect; nearly all actives have a fitted effect of over 55% in size
Details: yeast TDP-43 toxicity rescue, BacTiter-Glo growth, 24 h; series mostly up to 46.1 µM; growth rescue (activation): at the top concentration
How it was run: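 TDP-43-expressing yeast, pregrown in raffinose, seeded at OD600 0.02 in galactose medium with compound for 24 hr at 30 deg C. Growth read by BacTiter-Glo luminescence, so rescue of toxicity appears as activation.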

Compound	growth rescue (activation)
CCC(=O)c1ccc(OCC(=O)NNC(=O)c2cc(C)oc2C)cc1	inactive: -2.71%
CCc1nc2c(OCCC3CCCCC3)cccn2c1N(C)C(=O)c1ccncc1	inactive: -0.651%
CCOC(=O)c1sc(NC(=O)C2CC(=O)N(c3ccc(C)cc3)C2)nc1C (stereo unspecified)	inactive: -4.09%
CC(C)c1ccc(-c2c(C#N)c(N)nc3c2CCCCC3)cc1	inactive: 12.8%
CCN(CC)CCNC(=O)c1ccc(NC(=O)c2ccccc2-c2ccc(C(F)(F)F)cc2)cc1	inactive: 1.27%
CC1(C(=O)NS(=O)(=O)c2ccc(Cl)cc2)CCN1C(=O)C1CCCCC1 (stereo unspecified)	inactive: -2.04%
CN(/N=C/c1cccc(Br)c1)C1=NS(=O)(=O)c2ccccc21	inactive: 7.97%
Cc1cc(C)c2nc(NC(=O)c3cc(C)on3)sc2c1	inactive: 29.7%
COc1ccccc1-c1cc(NC=O)c2ncc(-c3cccc(C(C)=O)c3)n2c1	inactive: 25.6%
CCCCNS(=O)(=O)c1ccc2nc(SCC(=O)Nc3ccccc3Cl)[nH]c2c1	inactive: -17.4%
Cc1cc(C)cc(N(CC(=O)NC(C)(C)C)C(=O)CNC(=O)c2cccs2)c1	inactive: 9.92%
Cc1nc(NC(=O)CSc2nc(N)cc(N)n2)sc1C	inactive: 4.64%
Cc1ccc(S(=O)(=O)N2CCOCC2)cc1NC(=O)CSc1ccccn1	inactive: 11.1%
CC(Cc1ccco1)NC(=O)c1ccc(C(F)(F)F)cc1 (stereo unspecified)	inactive: 6.85%
CCC1CCCCN1CCCNC(=O)Cn1cnc2sc(C)c(S(=O)(=O)N3CC(C)CC(C)C3)c2c1=O (stereo unspecified)	inactive: 9.07%
CCOC(=O)c1cc2c(ccn2C)n1Cc1ccc(C#N)cc1	inactive: 8.11%
CCOCCCNC(=O)CSc1nc2nc(C)c(Cc3ccccc3)c(C)n2n1	inactive: 2.52%
O=C1OCCN1CCNCc1cn(-c2ccc(F)cc2)nc1-c1ccccc1Cl	inactive: -0.934%
Cc1cccc(Cn2cnc3c(sc4nc(C)cc(C)c43)c2=O)c1	inactive: -0.989%
C/C(=N\Nc1ccccc1C(=O)O)c1ccncc1	inactive: -1.5%
COc1cc(C(=O)OCC(=O)Nc2cc(-c3cc(C)c(C)cc3C)nn2-c2ccccc2)cc(OC)c1OC	inactive: 2.13%
Cc1cc(C(=O)NC(C)CCC(C)C)c2ccccc2n1 (stereo unspecified)	inactive: 11.5%

Compound	growth rescue (activation)
NS(=O)(=O)c1ccc(N/N=C/c2ccc(O)c(O)c2O)c([N+](=O)[O-])c1	inactive: -4.88%
NS(=O)(=O)c1ccc(S(=O)(=O)N2CCN(C3CCCC3)CC2)cc1	inactive: 11.2%
Cc1ccc(-c2noc(C3CCCN(C(=O)c4cccc([N+](=O)[O-])c4)C3)n2)o1 (stereo unspecified)	inactive: 12.1%
CN(C)CCCNc1nc2cc(-c3ccccc3CO)sc2c(=O)n1C	inactive: 12.2%
O=C(Nc1ccc(S(=O)(=O)N2CCCCC2)cc1)C1CCCCC1	inactive: 12%
Cc1cccn2c(=O)c3cc(C(=O)NC4CCCCC4)sc3nc12	inactive: -15.3%
CS(=O)(=O)N1CCC(C(=O)Nc2cccc([N+](=O)[O-])c2)CC1	inactive: -2.78%
Clc1ccc2nc(CSCc3ccccc3)cn2c1	inactive: 11.9%
Cc1nnc(N/N=C/c2ccc(-c3ccccc3F)o2)n1N	inactive: 11.5%
COc1ccccc1N(C)S(=O)(=O)c1ccc(C(=O)Nc2nc(C)cs2)cc1	inactive: 6.09%
CCOC(=O)C1CCCCN1Cc1ccc(C(F)(F)F)cc1 (stereo unspecified)	inactive: 17.5%
C=CCn1c(C)cc(C(=O)CSc2nnc(NC(C)C)s2)c1C	inactive: 27.2%
CCCCOc1ccc(S(=O)(=O)NCc2csc(-c3ccc(OC)cc3)n2)cc1	inactive: 5.59%
O=C1c2cccc3cccc(c23)C(=O)N1CCN1CCN(C(=S)Nc2ccc(Cl)cc2)CC1	inactive: -1.54%
CCc1nnc(NS(=O)(=O)c2ccc(NCc3ccccc3O)cc2)s1	inactive: 11.4%
CC(=O)Nc1ccc(-c2ccnc3c2CC(C)(C(=O)Nc2ccc4c(c2)OCO4)O3)cc1 (stereo unspecified)	inactive: -0.711%
O=C(OCc1cc(=O)n2cc(Br)ccc2n1)c1ccc(Cl)c(S(=O)(=O)NCc2ccccc2)c1	inactive: 10.3%
NC(=O)NC(Cc1ccccc1)C(=O)NNC(=O)COc1ccccc1Cl (stereo unspecified)	inactive: 7.77%
CCOC(=O)N1CCN(C(=S)NC2CCCCC2)CC1	inactive: 12.4%
CCOc1ncccc1C(=O)OCC(=O)c1ccc(Br)s1	inactive: -3.61%
COc1ccc(C2CC3(CC(C)(C)NC(SC)=N3)Oc3cc(O)cc(C)c32)cc1 (stereo unspecified)	inactive: 16.1%
Cc1ccc(C(C)C)c(OCC(=O)OCC(=O)NC2CC2)c1	inactive: 18.4%

Compound	growth rescue (activation)
Cc1ccc(NC(=O)CSc2nc(C)c(C)c(C)n2)cc1S(=O)(=O)N1CCOCC1	inactive: 4.77%
Cc1nn(C)c(C)c1NC(=O)c1cc2nc(-c3ccco3)cc(C(F)(F)F)n2n1	inactive: 6.28%
Cc1c(Cc2ccccc2)c(=O)oc2cc(O)cc(O)c12	inactive: 7.1%
COc1ccccc1OCCC(=O)N1CCN(c2ccccc2OC)CC1	inactive: 28%
CCn1cc(C(=O)N(CCC(C)C)c2c(N)n(Cc3ccccc3)c(=O)[nH]c2=O)c(=O)c2ccc(C)nc21	inactive: 5.6%
O=C(NCc1cccnc1)C1COc2ccccc2O1 (stereo unspecified)	inactive: 16.3%
Cc1ccnc(NC(=O)CCC(=O)N(CC(=O)NCCc2ccccc2)c2ccc(F)cc2)c1	inactive: -3.78%
CCc1ccc(Oc2ncnc(N)c2[N+](=O)[O-])cc1	inactive: 28.1%
O=C(NNS(=O)(=O)c1ccc(Cl)cc1)c1ccc(S(=O)(=O)N2CCCCC2)cc1	inactive: 10.8%
COc1ccc(CCNC(=O)Nc2nc(C(N)COCc3ccccc3)cs2)cc1OC (stereo unspecified)	inactive: 2.93%
CCOC(=O)c1cc(-c2ccc(N3CCOCC3)cc2)nn1-c1ccccc1C(=O)O	inactive: -7.96%
COc1cc2cccc(OC)c(=O)c2c(O)c1OC	inactive: 2.92%
CCN1CCN(C(=O)CN(c2ccc(F)c(Cl)c2)S(C)(=O)=O)CC1	inactive: 0.616%
CCCCNC(=O)COC(=O)c1ccc(N(C)C)cc1	inactive: 23.7%
COc1ccc(OC)c(NC(=O)CSc2nc(O)cc(=O)n2CC(C)C)c1	inactive: -5.54%
COc1ccc(NC(=O)/C=C/c2ccccc2)c([N+](=O)[O-])c1	inactive: 16.1%
CCOc1cc(/C=C2/C(=N)N3OC(C)=CC3=NC2=O)ccc1OC	inactive: 10.8%
COc1ccc2c(c1)C(=O)c1ccccc1CO2	inactive: 40.8%
Cn1c(=O)[nH]c(=O)c2c1nc(SCC(=O)O)n2CCc1ccccc1	inactive: -31%
O=C(CN1C(=O)NC2(CCCC2)C1=O)NCc1cccc(Cl)c1	inactive: 0.0516%
O=C(CCN1c2ccccc2Sc2ccccc21)Oc1ccccc1	inactive: -19.6%
O=c1[nH]nc2c3ccccc3cnn12	inactive: 10.7%

Compound	growth rescue (activation)
O=C(CN(C(=O)c1csnn1)c1cccc(C(F)(F)F)c1)NCCc1ccccc1	inactive: 5.27%
O=c1[nH]c(CN2CCN(S(=O)(=O)c3ccc4c(c3)OCCO4)CC2)nc2sc3c(c12)CCCC3	inactive: 13.4%
COC(=O)c1ccccc1NC(=O)COC(=O)c1ccco1	inactive: 19.6%
CC(C)NC(=O)c1ccc2c(c1)S(=O)(=O)c1ccccc1C2=O	inactive: -25.8%
COC(=O)c1ccc(NC(=O)Nc2cccc(F)c2)cc1	inactive: 16.5%
Cc1ccc(CN2CCN(/N=C/c3ccc(N(C)C)cc3)CC2)cc1	inactive: 4.89%
CCOC(=O)c1c(CNc2ccncc2)n(C)c2cc(Br)c(O)cc12	inactive: -13.9%
O=S(=O)(/N=C(/Nc1nccs1)c1ccc(F)cc1)c1ccccc1	inactive: -4.09%
CCN(CC(=O)NCc1ccc(F)cc1)Cc1cc(=O)n2ccsc2n1	inactive: 18%
COc1ccccc1NS(=O)(=O)c1cc(NC(=O)Cn2cnc3c2c(=O)n(C)c(=O)n3C)ccc1C	inactive: -2.98%
COc1cccc(N2CCN(Cc3nnnn3C3CCCCC3)CC2)c1	inactive: 3.88%
COc1ccc(C(=O)Nc2ccnn2C2CCN(C(=O)c3cnsn3)CC2)cc1	inactive: 2.04%
CC(C)CNc1ncnc2c1ncn2[C@H]1CN(CCN2CCOCC2)C[C@@H](CO)O1	inactive: 4.06%
O=C(c1cc2cc([N+](=O)[O-])ccc2oc1=O)N1CCN(C2CCCCC2)CC1	inactive: 14.6%
CCCCn1c(CCC(=O)O)nc2cc(S(=O)(=O)N(CC)CC)ccc21	inactive: 17%
CC(C)C1N(C(=O)CN2CCCC2)CCN1S(=O)(=O)c1ccccc1 (stereo unspecified)	inactive: 16.5%
COC(=O)Cc1c(C)c2ccc(O)c(CNCc3ccc(OC)c(OC)c3)c2oc1=O	inactive: -3.87%
O=C(CSc1nnc2c(n1)[nH]c1ccccc12)Nc1nncs1	inactive: -2.1%
CCOC(=O)NNS(=O)(=O)c1cc(Br)ccc1Br	inactive: 1.55%
CC(NS(=O)(=O)c1ccc2c(c1)C(=O)c1cc(S(=O)(=O)NC(C)C(=O)O)ccc1-2)C(=O)O (stereo unspecified)	inactive: -11.9%
CCOc1ccc(NCc2nnc(SCC(=O)Nc3nc(-c4ccccc4)cs3)n2-c2ccccc2)cc1	inactive: 4.46%
COCCCNS(=O)(=O)c1ccc(C)cc1	inactive: -10.5%

Compound	growth rescue (activation)
COc1ccc(C2=NC(C)(C)N(CC(=O)Nc3cc(OC)cc(OC)c3)C2=O)cc1	inactive: 18.8%
COc1ccc(NC(=S)NC(C)C(c2ccccc2)N2CCOCC2)cc1 (stereo unspecified)	inactive: -12.3%
CCNC(=O)C1CCCN(C(=O)c2ccc(-c3ccccc3)cc2)CC1 (stereo unspecified)	inactive: 13%
CCN(C(=S)Nc1cc(S(=O)(=O)N2CCOCC2)ccc1Cl)c1cccc2ccccc12	inactive: 6.2%
N#Cc1ccc(Cl)cc1NC(=O)COC(=O)[C@H](CCC(N)=O)NC(=O)c1ccc(F)cc1	inactive: -8.86%
CC(C)OC(=O)/C(C#N)=C\c1cccnc1	inactive: -0.102%
C=CCc1ccc(OCCOCCOc2cccc3cccnc23)c(OC)c1	inactive: -4.17%
O=C(Nc1cc(Cl)ccc1N1CCOCC1)C1CC1	inactive: 31.6%
Cc1cc(C)c(NC(=O)COC(=O)c2ccncc2)c(C)c1	inactive: 4.01%
O=C(Cc1ccccc1)NNC(=S)Nc1ccccc1	inactive: -4.93%
Cc1cccc(OCC(=O)Nc2ccc3c(c2)nc(CN2CCCCC2)n3C)c1	inactive: -23.5%
COc1ccccc1CNC(=O)N1CCN(S(=O)(=O)c2ccccc2)CC1	inactive: 3.26%
Cc1onc(-c2ccccc2Cl)c1C(=O)N1CCCCC1	inactive: 11.1%
O=C(CSCc1ccc(C(=O)O)cc1)Nc1ccccc1	inactive: -4.5%
COc1ccc(-c2c(C)[nH]n3c(=O)c(Cc4ccccc4)c(C)nc23)cc1OC	inactive: 10.5%
CNc1nc(NCCOC23CC4CC(CC(C4)C2)C3)nc(OCC(F)(F)F)n1	inactive: 24.3%
CCn1c(=O)c2c(nc(SCC(=O)NC3CCCC3)n2C)n(C)c1=O	inactive: -8.32%
O=C(CCS(=O)(=O)c1ccccc1Cl)NC1CCCCCC1	inactive: 25.6%
